In this assay the target is SARS-CoV-2 spike (S) protein, recombinant (ACROBiosystems, Catalog#SPN-C52H9) (SARS-CoV-2). Nature of the assay: SPR. (Surface plasmon resonance follows binding to a sensor surface in real time, without labels.)

B1: recombinant APP N-terminal ([…]) fragment (domain or fragment)
chain: not shown
Turning to B1, the koff – broadly, the first-order rate constant of dissociation – came to 0.00234 s⁻¹.

The record behind these values is publication PMC10725492 (2023).
